# Data from patent US4868203A, “Bacterial substance and pharmaceutical composition thereof” (Kabushikikaisha Ueno Seiyaku Oyo Kenkyujo, priority 1986, dated 1989).
# Test system: Xandomonas campestris PV citri U-2
# Format: cell-based
# Settings: Xandomonas campestris PV citri U-2 (citrus canker)
compound,measurement,value
CC=CC=CC=CC(=O)NC(CC(=O)NC(C(=O)C1C(=O)NC(=O)C1C)C(C)C)c1ccccc1 (stereo not shown) [UFC-N11],MIC,0.2 µg/mL
